These results are taken from article PMC4336329 (PLoS ONE, 2015).

Among all 310,000 compounds or so, about 14,000 (4.5%) showed an effect of 50% or more. Effects have a minus sign here. Some of the results follow.
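Further: peak tail current of the secondary pulse compared with the same well before compound.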

The target in the assay is human ether-à-go-go-related gene (hERG) potassium channel (human, UniProt Q12809). The assay is described as follows: primary screen, population patch clamp on CHO cells stably expressing hERG.
human ether-à-go-go-related gene (hERG) potassium channel, sequence (Q12809 whole entry, looked up): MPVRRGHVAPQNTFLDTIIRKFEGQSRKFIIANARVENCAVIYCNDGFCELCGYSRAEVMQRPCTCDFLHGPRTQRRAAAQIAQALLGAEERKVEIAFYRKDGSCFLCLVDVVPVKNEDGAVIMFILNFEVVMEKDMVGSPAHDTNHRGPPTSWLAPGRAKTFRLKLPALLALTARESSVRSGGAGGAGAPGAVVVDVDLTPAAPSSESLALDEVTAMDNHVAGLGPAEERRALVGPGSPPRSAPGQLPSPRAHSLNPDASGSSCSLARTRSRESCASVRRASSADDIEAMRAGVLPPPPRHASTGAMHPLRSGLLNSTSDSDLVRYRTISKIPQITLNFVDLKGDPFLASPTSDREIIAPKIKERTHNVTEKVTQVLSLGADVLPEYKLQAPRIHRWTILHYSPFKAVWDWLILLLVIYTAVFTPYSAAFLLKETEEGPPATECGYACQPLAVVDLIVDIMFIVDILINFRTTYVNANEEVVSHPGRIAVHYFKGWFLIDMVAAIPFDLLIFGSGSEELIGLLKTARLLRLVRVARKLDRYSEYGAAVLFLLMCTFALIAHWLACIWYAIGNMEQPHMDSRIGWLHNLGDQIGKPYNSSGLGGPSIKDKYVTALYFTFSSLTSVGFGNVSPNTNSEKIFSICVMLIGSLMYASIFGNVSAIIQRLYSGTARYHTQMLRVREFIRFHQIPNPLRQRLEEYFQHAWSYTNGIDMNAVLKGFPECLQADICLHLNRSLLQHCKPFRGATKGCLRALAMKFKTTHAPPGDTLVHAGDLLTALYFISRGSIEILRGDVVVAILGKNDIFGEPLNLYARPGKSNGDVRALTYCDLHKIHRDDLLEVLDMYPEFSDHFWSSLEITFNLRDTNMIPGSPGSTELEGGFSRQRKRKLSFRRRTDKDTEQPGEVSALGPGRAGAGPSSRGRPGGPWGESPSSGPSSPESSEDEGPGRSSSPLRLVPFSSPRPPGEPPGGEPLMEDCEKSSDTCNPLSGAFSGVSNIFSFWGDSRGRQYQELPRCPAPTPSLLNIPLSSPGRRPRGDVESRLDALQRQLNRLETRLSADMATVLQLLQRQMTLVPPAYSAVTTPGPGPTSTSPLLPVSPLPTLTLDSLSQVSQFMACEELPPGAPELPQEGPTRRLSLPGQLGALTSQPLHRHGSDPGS
In the case of `CCCCN(C(=O)c1cc(OC)c(OC)c(OC)c1)C1=CC2CCC(C1)N2C.Cl` (centres unmarked), the “hERG current change (%, negative = inhibition) at 10uM” value is given as -20.2%. Take `O=C(O)c1ccc2c(c1)C(=O)N(c1ccc(C(=O)OCC(=O)c3ccccc3)cc1)C2=O`: the “hERG current change (%, negative = inhibition) at 10uM” value is 23.4%. Regarding `Cc1cc(NC(=O)CCN2C(=O)c3ccccc3C2=O)no1`, the “hERG current change (%, negative = inhibition) at 10uM” value is given as 12.6%.

With `COC(=O)C1=C(C)N(Cc2ccc(C)cc2)C(=O)/C1=C\c1ccc(O)c(OC)c1`, the “hERG current change (%, negative = inhibition) at 10uM” value is 6.31%.

As for `CCC(C)(C)NC(=O)C(c1cccc(OC)c1OC)N(Cc1ccccc1)C(=O)CCC(=O)Nc1cc(C)on1` (centres unmarked), the “hERG current change (%, negative = inhibition) at 10uM” value is -4.14%.

As to `Cc1ccc(-n2nnnc2-c2cnn(-c3cccc(F)c3)c2C(F)(F)F)cc1`, the “hERG current change (%, negative = inhibition) at 10uM” value was -7.43%. The figure for `O=C(O)c1cccc([N+](=O)[O-])c1C(=O)Nc1nc2ccccc2s1` is 37.4%; for `CCOC(=O)CCCCC(=O)c1[nH]c(=O)[nH]c1C[n+]1ccccc1.[Cl-]` it is 26.4%.

For `COc1cccc(N2C(=O)NC(=O)/C(=C/c3ccc([N+](=O)[O-])s3)C2=O)c1`, the “hERG current change (%, negative = inhibition) at 10uM” value stood at 7.16%.

For the molecule `O=C(NNc1ccc([N+](=O)[O-])cc1)c1ccccc1Cl`, the “hERG current change (%, negative = inhibition) at 10uM” value was 3.45%. For the molecule `Cc1ccc(C(C)C)c(OCCCn2ccnc2C)c1.O=C(O)C(=O)O`, the “hERG current change (%, negative = inhibition) at 10uM” value is -63.8%. Consider `CC(C)=CCC(C)(C)C1OCCN1C(=O)c1ccccc1` (centres unmarked), for which the “hERG current change (%, negative = inhibition) at 10uM” value is given as -18.7%.

Regarding `CC(=O)Nc1ccc(C(=O)NCCc2ccccc2)cc1`, the “hERG current change (%, negative = inhibition) at 10uM” value turned out to be 12.9%. The figure for `O=C(N/N=C/C=C/c1ccccc1)c1cccnc1` is -10.3%; for `O=C(CCN1C(=O)c2ccccc2C1=O)C1=NN[C@@H]2C(=O)N(c3cccc(Cl)c3)C(=O)[C@H]12` it is 11.6%. Consider `O=C(c1ccc(-c2ccccc2)cc1)N1CCN(c2ccccc2)CC1`, for which the “hERG current change (%, negative = inhibition) at 10uM” value is on record as 14.7%. `COc1ccc(Br)cc1C(=O)NC(=S)Nc1c(C)n(C)n(-c2ccccc2)c1=O`: the “hERG current change (%, negative = inhibition) at 10uM” value was 24.8%. Consider `CC(CNS(=O)(=O)c1ccc2c(c1)NC(=O)CCS2)c1ccccc1` (centres unmarked), for which the “hERG current change (%, negative = inhibition) at 10uM” value is recorded as -8.52%. The figure for `CCC(=O)N1CCc2cc(S(=O)(=O)NC(C(=O)N3CCc4ccccc4C3)C(C)C)ccc21` (centres unmarked) is -10.2%; for `CC1(C)CC(=O)C2=C(C1)N=c1s/c(=C/c3ccc(F)c(F)c3)c(=O)n1C2c1ccc(F)cc1` (centres unmarked) it is 10.8%; for `CCn1c(Cc2ccccc2)nnc1SCC(=O)Nc1ccc2c(c1)OCCO2` it is -7.3%. As for `CC1CCN(C(=O)c2[nH]cnc2C(=O)N[C@@H](C)c2ccccc2)CC1`, the “hERG current change (%, negative = inhibition) at 10uM” value is given as -3.53%. Under `O=S(=O)(c1ccc(F)cc1)N1CCN(c2ncccn2)CC1` stands 7.6%. Regarding `CC(=O)N1CCCc2cc(S(=O)(=O)N3CCCC(C(=O)N4CCN(c5ccccc5)CC4)C3)ccc21` (centres unmarked), the “hERG current change (%, negative = inhibition) at 10uM” value is listed as -21.3%. Under `CCCN(CCC)CCCNc1ccc2nnc(-c3ccc(F)cc3)n2n1` stands -55.9%; under `COCCCN=CC1=C(O)CC(c2ccccc2)CC1=O` (centres unmarked), 17.9%; under `Cc1ccccc1CNC(=O)Nc1cccs1`, 3.67%.

For `CC(=O)c1cc(F)c(N2CCCC2)cc1C`, the “hERG current change (%, negative = inhibition) at 10uM” value amounted to 5.63%. As for `O=S(=O)(Nc1ncnc2sc3c(c12)CCC3)c1ccc2ccccc2c1`, the “hERG current change (%, negative = inhibition) at 10uM” value is 0.923%. Under `CC(=O)c1c(C)nn(C(=O)c2cccs2)c1C` stands 10%. `COCC1CCCCN1C(=O)c1ccc(OC)c(OC2CCN(C(C)C)CC2)c1` (centres unmarked): the “hERG current change (%, negative = inhibition) at 10uM” value was found to be 14.7%. `Cl.Nc1ccc2c(c1)OC1(CCCC1)O2`: the “hERG current change (%, negative = inhibition) at 10uM” value is reported as 45%. Under `O=C(O)CSc1nc2sc3c(c2c(=O)n1Cc1ccccc1)CCCCC3` stands 26.5%. Under `COCCCN1C(=O)C(O)=C(C(=O)c2ccc(C)o2)C1c1cccc(Br)c1` (centres unmarked) stands 8.25%; under `CN1C(=O)/C(=C2/C=CC=CN2C)OC1=S`, -4.71%. Regarding `Cc1cc(NC(=O)/C=C/c2ccccc2Cl)no1`, the “hERG current change (%, negative = inhibition) at 10uM” value is on record as 14.1%. `N#Cc1ccsc1NC(=O)C1CC(=O)N(Cc2ccccc2)C1` (centres unmarked): the “hERG current change (%, negative = inhibition) at 10uM” value is listed as -18.4%. Take `CCCC(C)NC(=O)C1CC(=O)N(CCc2ccc(F)cc2)C1` (centres unmarked): the “hERG current change (%, negative = inhibition) at 10uM” value worked out at 9.07%. Regarding `Cc1ccnc(NS(=O)(=O)c2cccs2)c1`, the “hERG current change (%, negative = inhibition) at 10uM” value is on record as 11.1%. The figure for `CC(=O)c1ccccc1OCCOCCOc1ccccc1C(C)=O` is -34.9%; for `O=C(O)CSc1nc2ccccc2s1` it is 7.83%; for `CC(=N\Nc1ccccc1)/C(=N/O)C(=O)Nc1ccccc1` it is 4.03%. In the case of `O=C1c2cnc3nc(SCc4cccc(Cl)c4)nn3c2CC2c3ccccc3CCN12` (centres unmarked), the “hERG current change (%, negative = inhibition) at 10uM” value is listed as -7.81%.

For `CCN(CC)CCn1c2c(c(SCC(=O)Nc3ccc(C(C)C)cc3)nc1=O)CCCC2`, the “hERG current change (%, negative = inhibition) at 10uM” value is on record as -68.3%. As for `CC1CN(C(=O)NCc2ccccc2)c2cc(Cl)ccc2O1` (centres unmarked), the “hERG current change (%, negative = inhibition) at 10uM” value was 10.8%.

On to `Cc1cc(C(=O)O)ccc1-n1c(C)cc(C=C2C(=O)c3ccccc3C2=O)c1C`, for which the “hERG current change (%, negative = inhibition) at 10uM” value is 11.9%. The figure for `O=S(=O)(Nc1ccc(O)c(Sc2nc3ccccc3s2)c1)c1ccc(F)cc1` is 8.72%. On to `CC(c1ccccc1)n1cncc1C(=O)O` (centres unmarked), for which the “hERG current change (%, negative = inhibition) at 10uM” value is given as 18%. Under `COC(=O)Oc1ccc(/C=N/NC(=O)CSCc2ccc(Cl)cc2)cc1OC` stands -15.5%; under `COc1ccc(C(=O)NCc2nnc(SCC(=O)NO)n2Cc2ccccc2)cc1`, -5.01%; under `Clc1ccccc1/C=C/c1ccnc2ccccc12`, 1.03%. The figure for `CCOC(=O)CCNC(=O)N1CCCC(N(C)CCc2ccc(OC)c(OC)c2)C1` (centres unmarked) is -6.37%; for `CCN1CCN(c2ncnc3sc4c(c23)CCC(C)C4)CC1` (centres unmarked) it is -37.2%; for `CC(/C=C/c1ccccc1)=N\NC(=O)c1ccc2c(c1)OCCO2` it is 3.3%. The figure for `O=C(NCC(O)c1ccc([N+](=O)[O-])cc1)c1cccc(S(=O)(=O)N2CCCC2)c1` (centres unmarked) is -66.8%; for `Cn1cc(C(=O)OCC(=O)NC2(C#N)CCCC2)c2ccccc21` it is 0.00778%.

`COc1ccc(S(=O)(=O)N(C)C)cc1NCC(=O)Nc1ccc(Br)c(C)c1`: the “hERG current change (%, negative = inhibition) at 10uM” value was -6.82%. Under `CCOC(=O)COc1ccc2c(=O)c(-c3ccccc3)coc2c1` stands 4.82%; under `Oc1ccc(Cl)cc1C1=NNC(c2ccc(Cl)cc2)C1` (centres unmarked), 2.89%. Consider `O=C(CCn1cnnn1)Nc1ccc(F)cc1`, for which the “hERG current change (%, negative = inhibition) at 10uM” value was determined as 2.01%. In the case of `O=S1(=O)CC(O)C(N2CCCCC2)C1` (centres unmarked), the “hERG current change (%, negative = inhibition) at 10uM” value is given as -0.658%. The figure for `CC(C)(C)C(=O)c1cn(CC(=O)NCc2ccc3c(c2)OCO3)c2ccccc12` is 0.962%; for `C=CCNC(=O)c1ccc(CSc2nc3ccccc3s2)cc1` it is 1.1%; for `Cc1cc(NC(=O)CC(C)C)c(=O)n(Cc2ccccc2F)c1` it is 15.1%. As to `Cc1ccc(C(C)C)c(OCC(=O)OCC(=O)c2c(N)n(C)c(=O)n(C)c2=O)c1`, the “hERG current change (%, negative = inhibition) at 10uM” value was 3.36%. The figure for `O=C(N/N=C/c1cc([N+](=O)[O-])cc([N+](=O)[O-])c1O)C(O)(c1ccccc1)c1ccccc1` is -4.37%; for `COCC(C)n1c(C)cc(C(=O)COC(=O)c2ccc3ncsc3c2)c1C` (centres unmarked) it is -28.7%.

Turning to `CCOc1ncccc1C(=O)OCC(=O)N1CCc2ccccc21`, the “hERG current change (%, negative = inhibition) at 10uM” value is 7.12%. Under `COCC1CCN(C(=O)CCc2nnc(CCCCc3ccccc3)o2)CC1` stands -4.75%; under `COc1cccc(C(=O)NCCCNC(=O)c2cccnc2)c1`, 23.2%. For the molecule `Brc1ccc(CSc2nnc(-c3ccccn3)n2Cc2ccco2)cc1`, the “hERG current change (%, negative = inhibition) at 10uM” value is reported as -16.8%. The figure for `CC1=C(C(=O)Nc2cc(C(=O)NCCCOC(C)C)ccc2C)SCCO1` is 17.9%.

Take `CCOc1cc(C(=O)NCC(C)CN(C)C)cc(OCC)c1OCC` (centres unmarked): the “hERG current change (%, negative = inhibition) at 10uM” value came out at 14.9%. For the molecule `CCOC(=O)C1CCCN(C(=O)C2CCN(S(=O)(=O)c3cccs3)CC2)C1` (centres unmarked), the “hERG current change (%, negative = inhibition) at 10uM” value is given as -18.7%. As to `COc1cccc(NS(=O)(=O)c2ccc3c(c2)CCN3C(C)=O)c1`, the “hERG current change (%, negative = inhibition) at 10uM” value was -8.93%. The figure for `CCOc1ccc(N2C(=O)CC(N3CCN(c4ccc(Cl)cc4)CC3)C2=O)cc1` (centres unmarked) is 18.5%. The figure for `CSc1ncccc1C(=O)Nc1ccncc1` is 16%; for `CCC(=O)Nc1ccc(S(=O)(=O)N2CCc3ccccc32)cc1` it is -6.96%. Turning to `Cc1cccc(C(=O)NNC(=O)c2ccccc2Br)c1`, the “hERG current change (%, negative = inhibition) at 10uM” value came out at 3.08%. Under `Cc1cc(/C=C2\C(=O)NC(=O)N(c3cccc(F)c3)C2=O)c(C)n1-c1cc(C(=O)O)cc(C(=O)O)c1` stands 21.1%.

With `CCOc1ccc(C(=O)NCC(=O)Nc2cc(C)ccn2)cc1OCC`, the “hERG current change (%, negative = inhibition) at 10uM” value is listed as -8.21%.

For `Cc1nnc(NC(=O)c2cc3n(n2)C(C(F)(F)F)CC(C2CC2)N3)s1` (centres unmarked), the “hERG current change (%, negative = inhibition) at 10uM” value was 18.9%. Consider `CC1(c2ccc(Cl)cc2)NC(=O)N(CC(=O)NCc2cccs2)C1=O` (centres unmarked), for which the “hERG current change (%, negative = inhibition) at 10uM” value is -4.38%. Regarding `CCCn1cnc2sc(CC)cc2c1=O`, the “hERG current change (%, negative = inhibition) at 10uM” value is given as 14.6%.

For `CN1C(=O)c2ccccc2C(O)c2ccccc21` (centres unmarked), the “hERG current change (%, negative = inhibition) at 10uM” value came to 8.44%. The figure for `CCOCCCNC(=O)C(C)NS(=O)(=O)c1ccc(C)cc1` (centres unmarked) is 4.29%; for `CCOc1ccccc1/C=N/Nc1cc(C)nc2ccc(C)cc12` it is 8.9%; for `CCOc1ccc2nc(NC(=O)CSc3ccccc3)sc2c1` it is 3.44%. Under `CCn1c(CC(=O)Nc2ccc(C)cc2)nnc1SCC(=O)Nc1nc(C)cs1` stands 13.9%.
